Experimental data from PubChem BioAssay (NCATS).
Several values for one entry are separate records, joined by “and”; a condition that tells them apart may be missing. Equal entries are not always repeated. The list shows a part of the results. The main result of the screen is listed elsewhere. These columns were measured beside it and carry no call. For some of these results: The list favours compounds with an active or inconclusive main result. Words in brackets tell the shape of the fitted curve; partial curves, single points and poor fits give uncertain potencies.

Legend:
[1] = qHTS drug screen for cell cycle checkpoint inhibitors in PARPi-resistant BRCA-mutant ovarian cancer cell lines. (AID 1963452); conditions: PEO1/OlaR viability, CellTiter-Glo luminescence, 96 h
Method in brief: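 PEO1, PEO4 and PEO1/OlaR ovarian cancer cells, 600 per well, exposed 96 h at 37C to a dilution series. Viability read by CellTiter-Glo luminescence, normalized to DMSO and empty wells; activity summarized as Z-AUC.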

[2] = qHTS for identification of novel therapeutic agents for treatment of microphthalmiaassociated transcription factor (MiT) renal cell carcinoma (RCC) (AID 1963991); conditions: TFE3-RCC viability, CellTiter-Glo, 48 h
Method in brief: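 Curves over 11 concentrations were fitted to CellTiter-Glo luminescence, scaled between empty wells (0%) and DMSO (100%) viability. Cells were UOK109, UOK124 and UOK145 TFE3-fusion RCC lines at 500/well, exposed 48 hours at 37 C.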

[3] = measured here: PEO1 parental viability
[4] = measured here: UOK124 cell viability
[5] = measured here: UOK145 cell viability
Tags give direction and shape of the fitted curve.

| Structure (SMILES) | AC50 [1, 3] | AC50 ([1]; measured here: PEO4 viability) | AC50 [2, 4] | AC50 [2, 5] |
| --- | --- | --- | --- | --- |
| NS(=O)(=O)c1ccc(S(=O)(=O)Nc2cccc3c(Cl)c[nH]c23)cc1 | 5.49 µM [falling, partial curve] | 0.616 µM [falling, full curve] | – | – |
| CC(=O)Nc1cc(Oc2ccc3c(nc(Nc4ccc(F)cc4F)n3C)c2C)ccn1 | 21.9 µM [falling, single point] | 0.309 µM [falling, full curve] | – | – |
| CCOc1cc(C(=O)N2CCC(N3CCN(C)CC3)CC2)ccc1Nc1ncc2c(n1)N(C1CCCC1)c1ccccc1C(=O)N2C | 15.5 µM [falling, partial curve] | 9.77 µM [falling, partial curve] | – | – |
| O=c1[nH]c(=O)n([C@H]2C[C@H](O)[C@@H](CO)O2)cc1C(F)(F)F | 5.49 µM [falling, partial curve] | 4.9 µM [falling, partial curve, poor fit] | – | – |
| COc1ccc2c(c1)[C@]1(C[C@H]1c1ccc3c(/C=C/c4ccc(CN5C[C@@H](C)O[C@@H](C)C5)cc4)n[nH]c3c1)C(=O)N2 | 21.9 µM [falling, single point] | 5.49 µM [falling, partial curve, poor fit] | – | – |
| CN(C)C1CCN(C(=O)c2ccc(NC(=O)Nc3ccc(-c4nc(N5CCOCC5)nc(N5CCOCC5)n4)cc3)cc2)CC1 | 155 nM [falling, full curve] and 77.6 nM [falling, full curve] | 219 nM [falling, full curve] and 49 nM [falling, full curve] | – | – |
| CCN(CC)CCNc1ccc(C)c2sc3ccccc3c(=O)c12 | 24.5 µM [falling, single point] | 19.5 µM [falling, single point] | – | – |
| CC(C)n1ncnc1-c1cn2c(n1)-c1ccc(O[C@@H](C)C(N)=O)cc1OCC2 | 4.9 µM [falling, partial curve] | 17.4 µM [falling, partial curve] | – | – |
| CCC(=O)NC[C@H](Cc1ccc(OCCc2nc(-c3ccccc3)oc2C)cc1)N/C(C)=C\C(=O)c1ccc(C(F)(F)F)cc1 | 7.76 µM [falling, partial curve, poor fit] | 19.5 µM [falling, single point] | – | – |
| Nc1ccn([C@@H]2O[C@H](CO)[C@@H](O)C2(F)F)c(=O)n1 | 0.0098 µM [falling, full curve] | 1.1 µM [falling, full curve] | – | – |
| CCC(=O)Nc1cccc(Oc2nc(Nc3ccc(N4CCN(C)CC4)cc3OC)ncc2Cl)c1 | 17.4 µM [falling, single point] | 15.5 µM [falling, partial curve] | – | – |
| C=C1C(=O)O[C@H]2[C@H]1CC/C(C)=C/CC[C@@]1(C)O[C@@H]21 | 17.4 µM [falling, single point] | 17.4 µM [falling, partial curve] | – | – |
| CC(=O)N1CCN(CCOc2ccc(C3CCN(C4=Nn5c(nnc5C(F)(F)F)CC4)CC3)cc2)CC1 | 8.71 µM [falling, partial curve, poor fit] | 7.76 µM [falling, partial curve] | – | – |
| COc1cc(C(N)=O)ccc1NC(=O)[C@@H]1N[C@@H](CC(C)(C)C)[C@@]2(C(=O)Nc3cc(Cl)ccc32)[C@H]1c1cccc(Cl)c1F | 27.5 µM [falling, single point] | 13.8 µM [falling, partial curve] | – | – |
| C[C@@H]1COCCN1c1cc(-c2ccnn2C)c2ccnc(-c3ccn[nH]3)c2n1 | 6.16 µM [falling, partial curve] | 2.19 µM [falling, full curve] | – | – |
| Fc1cccc(-n2cnc3c(NCc4nc5c(F)c(F)ccc5[nH]4)nc(N4CCOCC4)nc32)c1 | 0.123 µM [falling, full curve] | 0.219 µM [falling, full curve] | – | – |
| Cn1cncc1C(N)(c1ccc(Cl)cc1)c1ccc2c(c1)c(-c1cccc(Cl)c1)cc(=O)n2C (stereo not drawn) | 15.5 µM [falling, single point] | 19.5 µM [falling, partial curve, poor fit] | – | – |
| CNCCn1c(=O)c2cc(OC)c(OC)cc2c2cnc3cc4c(cc3c21)OCO4 | 0.0071 µM [falling, full curve] | 0.0283 µM [falling, full curve] | – | – |

| Structure (SMILES) | AC50 [1, 3] | AC50 ([1]; measured here: PEO4 viability) | AC50 [2, 4] | AC50 [2, 5] |
| --- | --- | --- | --- | --- |
| Cc1c(F)cccc1NC(=O)Nc1ccc(Cl)c(S(=O)(=O)[C@H]2CCCNC2)c1O | 13.8 µM [rising, partial curve, poor fit] | 9.77 µM [rising, partial curve, poor fit] | – | – |
| CC1(C)CC(=O)c2c(C(F)(F)F)nn(-c3ccc(C(N)=O)c(NC4CCC(O)CC4)c3)c2C1 (stereo not drawn) | 0.219 µM [falling, full curve] | 1.38 µM [falling, full curve] | 0.132 µM [falling, full curve] | 0.264 µM [falling, full curve] |
| COc1c(OCCCN2CCOCC2)ccc2c3n(c(=NC(=O)c4cnc(N)nc4)nc12)CCN3 | 0.178 µM [falling, full curve] | 0.283 µM [falling, full curve] | 7.24 µM [falling, partial curve, poor fit] | 2.88 µM [falling, partial curve] |
| C/C(=C\c1csc(C)n1)[C@@H]1C[C@@H]2O[C@]2(C)CCC[C@H](C)[C@H](O)[C@@H](C)C(=O)C(C)(C)[C@@H](O)CC(=O)N1 | 0.174 µM [falling, full curve] | 0.123 µM [falling, full curve] | – | – |
| Nc1nc(-c2nn(Cc3ccccc3F)c3ncccc23)ncc1C1CC1 | 1.1 µM [falling, full curve, poor fit] | 2.45 µM [falling, partial curve] | – | – |
| NC(=O)Nc1cc(-c2cccc(F)c2)sc1C(=O)N[C@H]1CCCNC1 | 0.174 µM [falling, full curve] | 0.347 µM [falling, full curve] | 0.526 µM [falling, full curve] | 0.662 µM [falling, full curve] |
| COc1ccc(CNC(=O)Nc2ncc([N+](=O)[O-])s2)cc1 | 15.5 µM [falling, single point] | 19.5 µM [falling, single point] | – | – |
| CC(C)(O)CNc1nc(Nc2ccnc(C(F)(F)F)c2)nc(-c2cccc(C(F)(F)F)n2)n1 | 12.3 µM [falling, single point] | 17.4 µM [falling, partial curve] | – | – |
| C[C@@]12O[C@@H](C[C@]1(O)CO)n1c3ccccc3c3c4c(c5c6ccccc6n2c5c31)CNC4=O | 0.347 µM [falling, full curve, poor fit] | 0.174 µM [falling, partial curve, poor fit] | 9.35 µM [falling, partial curve] | 5.9 µM [falling, partial curve] |
| CC(C)[C@H](C(=O)Nc1ccc(C(=O)NO)cc1)c1ccccc1 | 1.74 µM [falling, full curve] | 3.47 µM [falling, partial curve] | 2.96 µM [falling, full curve] | 3.72 µM [falling, full curve] |
| CCc1c2c(nc3ccc(O)cc13)-c1cc3c(c(=O)n1C2)COC(=O)[C@]3(O)CC | 0.0087 µM [falling, full curve] | 0.0389 µM [falling, full curve] | 0.0526 µM [falling, full curve] | 0.059 µM [falling, full curve] |
| CC(C)C[C@H](NC(=O)CNC(=O)c1cc(Cl)ccc1Cl)B1OC(=O)CC(CC(=O)O)(C(=O)O)O1 (stereo partly drawn) | 0.0155 µM [falling, full curve] | 0.0123 µM [falling, full curve] | 1.87 µM [falling, full curve] | 0.0833 µM [falling, full curve] |
| C=C1C(=O)OC2/C=C(/C)CC/C=C(/C)CCC12 (stereo not drawn) | 27.5 µM [falling, single point] | 24.5 µM [falling, single point] | – | – |
| C=CC(=O)Nc1cc2c(Nc3ccc(F)c(Cl)c3)ncnc2cc1C#CC(C)(C)N1CCN(C)CC1 | 2.45 µM [falling, full curve] | 3.09 µM [falling, full curve] | 2.64 µM [falling, full curve] | 3.72 µM [falling, full curve] |
| N#Cc1c(NC(=O)c2cccc3ccccc23)sc2c1CCCC2 | 0.155 µM [falling, full curve] | 0.195 µM [falling, full curve] | 0.235 µM [falling, full curve] | 0.332 µM [falling, full curve] |
| Cc1ccc(-n2nc(C(C)(C)C)cc2NC(=O)NCc2cc(F)ccc2Oc2ccc3c(cnn3CCO)c2)cc1 | 15.5 µM [falling, partial curve] | 19.5 µM [falling, single point] | – | – |
| O=C(c1ccc(F)c(F)c1Nc1ccc(I)cc1F)N1CC(O)([C@@H]2CCCCN2)C1 | 2.45 µM [falling, partial curve] | 3.09 µM [falling, partial curve] | – | – |
